# Data published in PubChem BioAssay (Tox21).
# Several values for one entry are separate records, joined by “and”; a condition that tells them apart may be missing. Equal values may be shown once. Inconclusive results, whose numbers are uncertain, are shown with a selection of clear calls. For some of these results: Potencies of inconclusive entries are doubtful fits and often do not repeat. More than one record can exist for a structure, and the calls need not agree. Activity calls are given as the source filed them. Unless noted, calls follow the shape of the dose curve; as a rule, active = well fitted curve in the direction sought with a large enough effect in the repeat runs; inconclusive = weak or mixed curves; inactive = no such curve, though single readings can be large; an effect the other way counts as inactive or inconclusive.
# Tests used:
# [1] = qHTS assay to identify small molecule that activate the aryl hydrocarbon receptor (AhR) signaling pathway - cell viability counter screen (AID 743086); also: potency is read from the fitted curve at half-maximal effect; nearly all actives have a fitted effect of over 45% in size
# Outline: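 HepG2-AhR-luc (HG2L7.5c1) cells, 4000/well, treated 24 h at 37 C with compound; viability measured as CellTiter-Fluor fluorescence after 30 min in the same wells as the luciferase read.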
# [2] = qHTS assay for small molecule agonists of the antioxidant response element (ARE) signaling pathway (AID 743202; active = well fitted activation curve with a large enough effect in the signal ratio in the repeat runs, not every such curve was filed as active; inconclusive = weak or mixed curves, or effect the other way; inactive = no such curve, though single readings can be large or run the other way; the % refers to the signal ratio; also: potency is read from the fitted curve at half-maximal effect); details: HepG2 ARE-bla reporter, beta-lactamase FRET, 16 h; activation: at 73.3 µM (top of the series) unless noted
# Outline: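 HepG2 ARE-bla reporter line, 2,000 cells/well; 5 h preincubation 37 C/5% CO2; compound (DMSO) 16 h 37 C; B/G FRET substrate 2 h RT; fluorescence intensity.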
# [3] = qHTS assay to identify small molecule agonists of the peroxisome proliferator-activated receptor delta (PPARd) signaling pathway - cell viability counter screen (AID 743211); details: PPARd-bla HEK293H viability, CellTiter-Glo luminescence, 17 h; activity change, negative = cytotoxicity: at 62.6 µM (top of the series) unless noted; also: potency is read from the fitted curve at half-maximal effect; nearly all actives have a fitted effect of over 55% in size
# Outline: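 Luminescent ATP viability assay (CellTiter-Glo, 30 min RT) in UAS-bla HEK293H cells carrying the PPAR delta reporter construct, 3000 cells/well, after a 17 h compound treatment at 37 C.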
# [4] = qHTS assay to identify small molecule antagonists of the peroxisome proliferator-activated receptor delta (PPARd) signaling pathway - cell viability counter screen (AID 743213); details: PPARd-bla HEK293H viability, CellTiter-Glo luminescence, 17 h; viability change, negative = cytotoxic: at 62 µM (top of the series) unless noted; also: nearly all actives have a fitted effect of over 50% in size; also: potency is read from the fitted curve at half-maximal effect; as to viability change, negative = cytotoxic: % is scaled to controls: 0 for no effect and ±100 for the full control effect
# Outline: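 Cytotoxicity counter screen: CellTiter-Glo luminescence read 30 min after addition, in the same wells as the reporter assay. There, PPARd UAS-bla HEK293H cells (3000/well) were treated 17 h at 37 C with compound and 300 nM L165041.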
# [5] = qHTS assay to identify small molecule agonists of the farnesoid-X-receptor (FXR) signaling pathway - cell viability counter screen (AID 743218); details: FXR-bla HEK293T viability, CellTiter-Glo luminescence, 16 h; viability change, negative = cytotoxic: at 62.6 µM (top of the series) unless noted; also: potency is read from the fitted curve at half-maximal effect; nearly all actives have a fitted effect of over 45% in size
# Outline: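 Luminescence from CellTiter-Glo, read after 30 min at RT, reports viability of GeneBLAzer FXR-UAS-bla HEK 293T cells treated 16 h with compounds in the wells used for the beta-lactamase reporter.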
# [6] = target: Vitamin D3 receptor (Homo sapiens) (UniProt P11473); assay: qHTS assay to identify small molecule agonists of the vitamin D receptor (VDR) signaling pathway (AID 743222; calls by dose curve; also: potency is read from the fitted curve at half-maximal effect); details: HEK293T VDR-UAS-bla, beta-lactamase FRET ratio, 16 h; activation: at 63.5 µM (top of the series) unless noted
# Outline: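 Beta-lactamase reporter readout (LiveBLAzer B/G FRET, 2 h RT) in VDR-bla cells after 16 h compound treatment at 37C, 5% CO2; cells pre-incubated 4 h before pin transfer of DMSO solutions.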
# [7] = qHTS assay to identify small molecule agonists of the vitamin D receptor (VDR) signaling pathway - cell viability counter screen (AID 743224); details: VDR-bla HEK293T viability, CellTiter-Glo luminescence, 16 h; activity change, negative = cytotoxicity: at 62.6 µM (top of the series); also: nearly all actives have a fitted effect of over 50% in size; also: potency is read from the fitted curve at half-maximal effect; as to activity change, negative = cytotoxicity: % is scaled to controls: 0 for no effect and ±100 for the full control effect
# Outline: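 Cytotoxicity counter screen: VDR-bla cells, 16 h compound exposure at 37C, 5% CO2; CellTiter-Glo luminescence, 30 min RT, same wells as bla read.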
# [8] = qHTS assay to identify small molecule antagonists of the peroxisome proliferator-activated receptor gamma (PPARg) signaling pathway - cell viability counter screen (AID 743194); details: PPARg-bla HEK293H viability, CellTiter-Glo luminescence, 17 h, co-treated with 50 nM rosiglitazone; activity change, negative = cytotoxicity: at 62.6 µM (top of the series) unless noted; also: nearly all actives have a fitted effect of over 55% in size; also: potency is read from the fitted curve at half-maximal effect; as to activity change, negative = cytotoxicity: % is scaled to controls: 0 for no effect and ±100 for the full control effect
# Outline: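 Cytotoxicity counter screen in PPARg-bla HEK293H cells, same wells as reporter assay. Compounds plus 50 nM rosiglitazone (final) for 17 h at 37 C, then viability read by CellTiter-Glo luminescence.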
# [9] = target: Peroxisome proliferator-activated receptor delta (Homo sapiens) (UniProt Q03181); assay: qHTS assay to identify small molecule agonists of the peroxisome proliferator-activated receptor delta (PPARd) signaling pathway (AID 743212; calls by dose curve; also: % is scaled to controls: 0 for no effect and ±100 for the full control effect); details: HEK293H PPARd-UAS-bla, beta-lactamase FRET ratio, 17 h; activation: at 62.6 µM (top of the series) unless noted
# Outline: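 Read-out: beta-lactamase FRET fluorescence after 2 h room-temperature incubation with LiveBLAzer B/G substrate. Cells were HEK293H carrying a UAS-bla reporter for PPARd, treated at 37 C with DMSO-dissolved compounds.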
# [10] = target: Peroxisome proliferator-activated receptor delta (Homo sapiens) (UniProt Q03181); assay: qHTS assay to identify small molecule antagonists of the peroxisome proliferator-activated receptor delta (PPARd) signaling pathway (AID 743215; active = well fitted inhibition curve with a large enough effect in the signal ratio in the repeat runs, not every such curve was filed as active; inconclusive = weak or mixed curves, or effect the other way; inactive = no such curve, though single readings can be large or run the other way; the % refers to the signal ratio;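 also: cells stimulated with agonist L165041 at 300 nM final during compound exposure; potency is read from the fitted curve at half-maximal effect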); details: HEK293H PPARd-UAS-bla, beta-lactamase FRET ratio, antagonist, 17 h; ratio activity, negative = inhibition: at 62 µM (top of the series) unless noted
# Outline: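 HEK293H GeneBLAzer PPARd UAS-bla reporter cells; cpd + L165041 300 nM final, 17 h 37 C; LiveBLAzer B/G FRET substrate 2 h RT; fluorescence intensity read-out. Antagonist mode.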
# [11] = target: Bile acid receptor (Homo sapiens) (UniProt Q96RI1); assay: qHTS assay to identify small molecule antagonists of the farnesoid-X-receptor (FXR) signaling pathway (AID 743217; active = well fitted inhibition curve with a large enough effect in the signal ratio in the repeat runs, not every such curve was filed as active; inconclusive = weak or mixed curves, or effect the other way; inactive = no such curve, though single readings can be large or run the other way; the % refers to the signal ratio; also: potency is read from the fitted curve at half-maximal effect); details: HEK293T FXR-UAS-bla, beta-lactamase ratio, CDCA-stimulated, 16 h; activity change, negative = inhibition: at 62.6 µM (top of the series) unless noted
# Outline: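 Read-out: beta-lactamase FRET fluorescence (LiveBLAzer B/G substrate, 2 h, room temperature) in GeneBLAzer FXR-UAS-bla HEK 293T cells. Compounds were co-dosed with 50 uM chenodeoxycholic acid (final) and incubated 16 h at 37 °C.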
# [12] = target: Peroxisome proliferator-activated receptor gamma (Homo sapiens) (UniProt P37231); assay: qHTS assay to identify small molecule antagonists of the peroxisome proliferator-activated receptor gamma (PPARg) signaling pathway (AID 743191; calls by dose curve; also: nearly all actives have a fitted effect of over 30% in size; also: potency is read from the fitted curve at half-maximal effect); details: HEK293H PPARg-UAS-bla, beta-lactamase ratio, antagonist, 17 h; ratio activity, negative = inhibition: at 62.6 µM (top of the series) unless noted
# Outline: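 GeneBLAzer PPARg UAS-bla HEK293H cells, 5 h post-plating, exposed to compounds 17 h at 37C. LiveBLAzer B/G FRET substrate added for 1 h at room temperature; beta-lactamase reporter read by fluorescence intensity.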
# [13] = target: Vitamin D3 receptor (Homo sapiens) (UniProt P11473); assay: qHTS assay to identify small molecule antagonists of the vitamin D receptor (VDR) signaling pathway (AID 743223; active = well fitted inhibition curve with a large enough effect in the signal ratio in the repeat runs, not every such curve was filed as active; inconclusive = weak or mixed curves, or effect the other way; inactive = no such curve, though single readings can be large or run the other way; the % refers to the signal ratio; also: potency is read from the fitted curve at half-maximal effect); details: VDR-UAS-bla HEK293T, beta-lactamase FRET ratio, 16 h; activity change, negative = inhibition: at 61 µM (top of the series) unless noted
# Outline: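 Agonist 1alpha,25-dihydroxyvitamin D3 (3 nM in well) was added with each compound to VDR-bla cells preincubated 4 h. Cells stood 16 h at 37C, then FRET substrate 2 h at room temperature; fluorescence intensity recorded.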
# [14] = target: Peroxisome proliferator-activated receptor gamma (Homo sapiens) (UniProt P37231); assay: qHTS assay to identify small molecule agonists of the peroxisome proliferator-activated receptor gamma (PPARg) signaling pathway (AID 743094; active = well fitted activation curve with a large enough effect in the signal ratio in the repeat runs, not every such curve was filed as active; inconclusive = weak or mixed curves, or effect the other way; inactive = no such curve, though single readings can be large or run the other way; the % refers to the signal ratio; also: potency is read from the fitted curve at half-maximal effect); details: HEK293H PPARg-UAS-bla, beta-lactamase FRET ratio, 17 h; activation: at 57 µM (top of the series) unless noted
# Outline: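 HEK293H PPARg-bla cells, 5 h settle at 37C/5% CO2; compound (DMSO) 17 h, 37C; B/G FRET substrate 1 h RT; fluorescence intensity read-out. qHTS format.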
# [15] = qHTS assay for small molecule activators of the heat shock response signaling pathway - cell viability counter screen (AID 743209); details: HSE-bla HeLa viability, CellTiter-Glo luminescence, 5 h; activity change, negative = cytotoxicity: at 62.6 µM (top of the series) unless noted; also: potency is read from the fitted curve at half-maximal effect; nearly all actives have a fitted effect of over 50% in size
# Outline: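 HSE-bla HeLa; 1500 cells/well; overnight 37 C, 5% CO2; compound 5 h 37 C; LiveBLAzer B/G substrate 2.5 h RT; CellTiter-Glo 30 min RT; luminescence.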
# [16] = qHTS assay for small molecule activators of the heat shock response signaling pathway (AID 743210; active = well fitted activation curve with a large enough effect in the signal ratio in the repeat runs, with a control signal flat, not every such curve was filed as active; inconclusive = weak or mixed curves; the % refers to the signal ratio; also: potency is read from the fitted curve at half-maximal effect); details: HeLa HSE-bla reporter, beta-lactamase ratio, 5 h; activation: at 62.6 µM (top of the series) unless noted
# Outline: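 Beta-lactamase reporter read-out: FRET substrate fluorescence after 2.5 h at RT, following 5 h compound treatment at 37 C of HeLa cells carrying HSE-driven bla reporter; quantitative HTS format.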
# [17] = target: Bile acid receptor (Homo sapiens) (UniProt Q96RI1); assay: qHTS assay to identify small molecule agonists of the farnesoid-X-receptor (FXR) signaling pathway (AID 743220; active = well fitted activation curve with a large enough effect in the signal ratio in the repeat runs, not every such curve was filed as active; inconclusive = weak or mixed curves, or effect the other way; the % refers to the signal ratio; also: potency is read from the fitted curve at half-maximal effect); details: HEK293T FXR-UAS-bla, beta-lactamase FRET ratio, 16 h; activation: at 62.6 µM (top of the series) unless noted
# Outline: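 FXR-UAS-bla HEK 293T cells carrying a UAS-driven beta-lactamase reporter were plated for 5 h at 37C/5% CO2, then exposed to DMSO-dissolved Tox21 10K compounds for 16 h at 37C. A LiveBLAzer B/G FRET substrate was loaded for 2 h at room temperature before fluorescence reading.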
# [18] = qHTS assay to identify small molecule antagonists of the farnesoid-X-receptor (FXR) signaling pathway - cell viability counter screen (AID 743221; active = well fitted cell-killing curve with a large enough effect in the repeat runs, not every such curve was filed as active; inconclusive = weak or mixed curves, or effect the other way; inactive = no such curve, though single readings can be large or run the other way; also: potency is read from the fitted curve at half-maximal effect; nearly all actives have a fitted effect of over 50% in size); details: FXR-bla HEK293T viability, CellTiter-Glo luminescence, 16 h; activity change, negative = cytotoxicity: at 62.6 µM (top of the series) unless noted
# Outline: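 In GeneBLAzer FXR-UAS-bla HEK 293T cells stimulated with 50 uM chenodeoxycholic acid (final), compounds acted for 16 h at 37 C. Viability was assessed afterwards by CellTiter-Glo luminescence.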
# Tags tell the direction and shape of the fitted curve or compound fluorescence and quenching.
# Sequence of UniProt Q96RI1 (Q96RI1 whole entry, looked up): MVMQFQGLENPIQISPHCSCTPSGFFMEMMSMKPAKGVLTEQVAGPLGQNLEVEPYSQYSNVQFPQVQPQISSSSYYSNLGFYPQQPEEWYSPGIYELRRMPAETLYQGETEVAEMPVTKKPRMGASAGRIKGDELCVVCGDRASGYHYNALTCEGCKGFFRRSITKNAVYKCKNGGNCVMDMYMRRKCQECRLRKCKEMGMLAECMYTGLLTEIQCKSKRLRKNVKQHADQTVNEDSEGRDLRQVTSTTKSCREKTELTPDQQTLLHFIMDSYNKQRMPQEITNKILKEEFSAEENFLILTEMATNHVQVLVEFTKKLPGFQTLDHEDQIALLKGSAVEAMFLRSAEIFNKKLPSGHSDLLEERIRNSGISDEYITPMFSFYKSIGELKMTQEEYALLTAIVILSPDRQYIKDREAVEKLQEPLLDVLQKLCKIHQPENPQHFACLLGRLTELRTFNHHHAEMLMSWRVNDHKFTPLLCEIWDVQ
# Sequence of UniProt Q03181 (Q03181 whole entry, looked up): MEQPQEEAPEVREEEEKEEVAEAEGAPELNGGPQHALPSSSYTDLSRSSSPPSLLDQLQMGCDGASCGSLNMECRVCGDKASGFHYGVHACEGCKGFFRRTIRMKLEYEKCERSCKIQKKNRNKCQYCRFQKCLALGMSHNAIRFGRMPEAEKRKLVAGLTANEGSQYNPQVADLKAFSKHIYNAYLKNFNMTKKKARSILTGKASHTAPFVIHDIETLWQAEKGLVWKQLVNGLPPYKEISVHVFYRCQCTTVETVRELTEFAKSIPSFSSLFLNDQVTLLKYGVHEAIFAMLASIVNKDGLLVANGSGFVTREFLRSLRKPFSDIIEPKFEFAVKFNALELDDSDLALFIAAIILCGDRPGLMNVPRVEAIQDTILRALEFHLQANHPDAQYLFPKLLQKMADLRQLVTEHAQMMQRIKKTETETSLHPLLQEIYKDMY
# Sequence of UniProt P11473 (P11473 whole entry, looked up): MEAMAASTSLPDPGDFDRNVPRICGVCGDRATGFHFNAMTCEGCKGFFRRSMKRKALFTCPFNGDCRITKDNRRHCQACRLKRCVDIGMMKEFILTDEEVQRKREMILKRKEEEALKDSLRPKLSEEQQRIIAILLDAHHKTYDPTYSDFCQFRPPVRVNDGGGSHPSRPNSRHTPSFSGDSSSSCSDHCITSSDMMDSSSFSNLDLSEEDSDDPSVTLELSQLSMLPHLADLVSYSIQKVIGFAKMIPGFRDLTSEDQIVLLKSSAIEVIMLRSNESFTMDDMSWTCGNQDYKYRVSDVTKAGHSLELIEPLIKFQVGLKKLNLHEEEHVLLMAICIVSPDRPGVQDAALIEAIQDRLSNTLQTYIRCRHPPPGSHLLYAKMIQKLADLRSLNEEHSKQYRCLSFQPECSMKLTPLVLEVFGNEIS
# Sequence of UniProt P37231 (P37231 whole entry, looked up): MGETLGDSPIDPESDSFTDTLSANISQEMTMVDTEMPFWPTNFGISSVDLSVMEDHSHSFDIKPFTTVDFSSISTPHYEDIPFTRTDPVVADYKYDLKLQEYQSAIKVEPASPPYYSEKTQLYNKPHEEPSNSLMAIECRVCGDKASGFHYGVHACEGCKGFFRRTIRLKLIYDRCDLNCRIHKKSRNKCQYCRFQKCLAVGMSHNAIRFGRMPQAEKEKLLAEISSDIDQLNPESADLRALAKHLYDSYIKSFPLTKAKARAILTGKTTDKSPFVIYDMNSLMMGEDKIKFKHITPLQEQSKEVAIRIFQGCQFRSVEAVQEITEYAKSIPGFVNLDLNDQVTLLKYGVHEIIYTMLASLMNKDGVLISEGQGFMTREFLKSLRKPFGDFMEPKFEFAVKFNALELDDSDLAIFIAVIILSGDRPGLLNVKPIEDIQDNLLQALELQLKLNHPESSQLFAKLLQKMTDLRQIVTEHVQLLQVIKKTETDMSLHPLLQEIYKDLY
structure (smiles),measurement,setting,value
Cc1c(C2(c3cc(Br)c(O)c(Br)c3C)OS(=O)(=O)c3ccccc32)cc(Br)c(O)c1Br,Potency,[1],active: 10.5 µM
same,Potency,[2],"inconclusive: 23.6 µM [rising, partial curve]"
same,Potency,[3],"inconclusive: 26.7 µM [cytotoxic, partial curve]"
same,Potency,[4],inactive
same,Potency,[5],active: 16.9 µM
same,Potency,[6],"inconclusive: 30 µM [rising, partial curve]"
same,Potency,[7],inactive
O=S(=O)(O)c1cc(S(=O)(=O)O)c2c(N=Nc3ccccc3)c(O)ccc2c1,Potency,[1],active: 21.8 µM and active: 21.7 µM
same,Potency,[8],inactive
same,Potency,[2],inactive
same,activation,[9],inconclusive: 7.47%
same,Potency,[10],"inconclusive: 22 µM [activator, single point]"
same,"activity change, negative = inhibition",[11],inconclusive: 0.389%
same,Potency,[7],"inactive and inconclusive: 19.5 µM [cytotoxic, partial curve, poor fit]"
CC(=O)Nc1cc(S(=O)(=O)O)cc2cc(S(=O)(=O)O)c(N=Nc3ccccc3)c(O)c12,Potency,[1],active: 19.3 µM
same,"ratio activity, negative = inhibition",[12],inconclusive: -18.6%
same,Potency,[13],inactive
CC1(C)C(=O)N(Br)C(=O)N1Br,Potency,[1],"inconclusive: 15.4 µM [rising, single point]"
same,Potency,[12],inactive
same,Potency,[2],inactive
same,Potency,[13],"inconclusive: 3.89 µM [activator, full curve]"
O=[Se](O)O,Potency,[1],active: 27.3 µM
same,Potency,[8],"inconclusive: 6.65 µM [rising, single point]"
same,Potency,[2],"inconclusive: 3.86 µM [falling, full curve]"
CN[C@H]1CC[C@@H](c2ccc(Cl)c(Cl)c2)c2ccccc21,Potency,[14],"inconclusive: 30.1 µM [rising, single point]"
same,Potency,[12],"inconclusive: 33.5 µM [rising, single point]"
same,Potency,[8],"inconclusive: 16.8 µM [cytotoxic, partial curve, poor fit]"
same,Potency,[2],inconclusive: 33.5 µM
same,Potency,[15],"inconclusive: 26.6 µM [cytotoxic, partial curve]"
same,Potency,[16],inconclusive: 33.5 µM [single point]
same,activation,[9],inconclusive: 11.6%
same,Potency,[4],active: 23.7 µM
same,Potency,[10],inconclusive: 33.5 µM [inhibitor]
same,Potency,[11],inconclusive: 33.5 µM [cytotoxic]
same,Potency,[5],active: 23.7 µM
same,Potency,[17],"inconclusive: 26.6 µM [falling, partial curve]"
same,Potency,[18],active: 26.6 µM
same,Potency,[6],"inconclusive: 11.9 µM [rising, full curve]"
same,Potency,[13],inconclusive: 26.8 µM
same,Potency,[7],active: 13.3 µM
